The other results are listed elsewhere or left out. The main result of the screen is listed elsewhere. These columns were measured beside it and carry no call. Numbered stars: 1 amine (or outer) side, 2 acyl side, 3 side chain; on linkers, the order of the positions; unused ones are H or OH. Square brackets hold non-standard residues; d marks the D form. Peptide text beside a SMILES is read from it. X2 = O=C([C@@H](CC(O)CCl)O[*:1])[*:2]; aIle = CC[C@@H](C)[C@H](N)C(=O)O; NMeV = CN[C@H](C(=O)O)C(C)C; NMeA = CN[C@@H](C)C(=O)O; βAla = NCCC(=O)O
Assays:
Experiment in all cases: Primary Screen for Target Class Profiling of Small Molecule Inhibitors of Methyltransferases
[1] = target: Glycine N-methyltransferase (Homo sapiens) (UniProt Q14749); details: purified enzyme, MTase-Glo SAH luminescence; measured here: GNMT inhibition; at 40 µM; stronger effect = lower value
How it was run: (§1)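 Each enzyme was assayed with SAM and its substrate. SAH formation detected by MTase-Glo luminescence; single-point 40 uM screen[…].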

[2] = target: Guanidinoacetate N-methyltransferase (Homo sapiens) (UniProt Q14353); details: purified enzyme, MTase-Glo SAH luminescence; measured here: GAMT inhibition; at 40 µM; stronger effect = lower value
How it was run: as §1

[3] = target: Histamine N-methyltransferase (Homo sapiens) (UniProt P50135); details: purified enzyme, MTase-Glo SAH luminescence; measured here: HNMT inhibition; at 40 µM; stronger effect = lower value
How it was run: as §1

[4] = target: Nicotinamide N-methyltransferase (Homo sapiens) (UniProt P40261); details: purified enzyme, MTase-Glo SAH luminescence; measured here: NNMT inhibition; at 40 µM; stronger effect = lower value
How it was run: as §1

[5] = target: Phenylethanolamine N-methyltransferase (Homo sapiens) (UniProt P11086); details: purified enzyme, MTase-Glo SAH luminescence; measured here: PNMT inhibition; at 40 µM; stronger effect = lower value
How it was run: as §1
On the % scale 0 is the no-effect control and ±100 the full control effect.

Compound | activity change, negative = inhibition [1] [%] | activity change, negative = inhibition [2] [%] | activity change, negative = inhibition [3] [%] | activity change, negative = inhibition [4] [%] | activity change, negative = inhibition [5] [%]
NC(=O)c1ncn2c1CN=C(c1ccccc1Br)c1cc(F)ccc1-2 | 2.07 | -0.237 | 3.48 | -19.8 | -4.84
CCC1c2cccn2-c2ccccc2CN1C(=O)Nc1ccccc1OC (stereo not drawn) | -13.5 | 2.89 | 0.408 | -2.13 | 2.41
CC1=NN=C(c2ccc(N)cc2)c2cc3c(cc2C1)OCO3 | -40.8 | -0.607 | -9.72 | -24.9 | -4.12
CNC(=O)N1N=C(c2ccc(N)cc2)c2cc3c(cc2CC1C)OCO3 (stereo not drawn) | 2.77 | 2.24 | 11.9 | -14.2 | 4.58
CCN1CCN(C(c2ccc(Cl)cc2)c2ccc(Cl)cc2)CC1 | – | 8.29 | – | -19.2 | 1.8
Nc1ncccc1CN1CC[C@H]2NCCC[C@]2(C(=O)O)C1 | -4.81 | -6.5 | -7.03 | -10.2 | -6.67
Cc1ccc(C2c3cccn3-c3ccccc3CN2C(=O)Nc2cc(Cl)ccc2C)cc1 (stereo not drawn) | 3.45 | 2.9 | 2.18 | -0.085 | -0.483
CN(CCc1ccccn1)C[C@H]1CN2CC[C@H]1C[C@@H]2CNC(=O)Nc1ccsc1 | -0.818 | 1.85 | -52.5 | 3.69 | -1.95
COC(=O)[C@@]1(C)C(=O)C=C[C@]2(C)c3c(O)cc(C(C)C)cc3[C@H](O)[C@@H](OC(C)=O)C12 (stereo partly drawn) | -0.562 | 7.08 | 5.67 | -5.11 | 5.58
COc1cc(NC(=O)N2Cc3ccccc3-n3cccc3C2c2ccccc2)cc(OC)c1 (stereo not drawn) | 6.33 | 0.103 | 5.46 | 7.1 | 5.26
CCC1c2cccn2-c2ccccc2CN1C(=O)Nc1ccc(C)cc1 (stereo not drawn) | -1.8 | 0 | -1.72 | -3.3 | 2.01
CCOc1ccc(C2c3cccn3-c3ccccc3CN2C(=O)Nc2cc(OC)ccc2OC)cc1 (stereo not drawn) | -3.61 | -0.308 | 2.9 | -1.74 | -0.109
CC(=O)[C@H]1CC[C@H]2[C@@H]3CC[C@H]4C[C@H](O)CC[C@]4(C)[C@H]3C(=O)C[C@]12C | -0.532 | 9.33 | 3.99 | -2.6 | 10.6
CC(=O)c1c(O)c(C)c(O)c(Cc2c(O)c3c(c(C(=O)/C=C/c4ccccc4)c2O)OC(C)(C)C=C3)c1O | -32.4 | 8.61 | 0.318 | -9.6 | -4.53
CCOCCCNC(=O)N1Cc2ccccc2-n2cccc2C1c1ccccc1C (stereo not drawn) | 7.28 | 0.709 | 1.43 | 3.15 | 4.01
CCc1ccc(C2c3cccn3-c3ccccc3CN2C(=O)Nc2cccc(Br)c2)cc1 (stereo not drawn) | 3.97 | 0.601 | -2.07 | 2.64 | 4.2
COc1ccccc1N1CCNCC1 | 6.37 | 8.91 | 4.81 | -9.64 | -2.35
C=C1CC[C@H]2[C@@H](/C=C(\C)C(=O)[C@@]3(OC(C)=O)C[C@H](C)[C@H](OC(=O)c4ccccc4)[C@@H]3[C@H]1OC(C)=O)C2(C)C | 0.464 | -14.1 | 7.84 | -24.7 | -12.5
COCC1CN(C2CCC2)CC12CCN(Cc1ccncc1)CC2 (stereo not drawn) | -2.19 | -0.564 | -4.06 | -7.59 | -9.2
COc1ccc(C2c3cccn3-c3ccccc3CN2C(=O)NCCc2ccccc2)cc1 (stereo not drawn) | 2.42 | 2.55 | -13.4 | -12.1 | -5.74
COc1ccc2[nH]c(-c3ccccc3)c(CCN(C)C)c2c1 | 0.325 | 1.81 | 6.7 | -14.7 | 1.93
CC[C@@H](C)[C@@H]1NC(=O)[C@@H]2CCCN2C(=O)[C@@H](CC(O)CCl)OC(=O)CCNC(=O)[C@H](C)N(C)C(=O)[C@H](C(C)C)N(C)C1=O (stereo partly drawn) (cyclo([NMeA][βAla][X2]P[aIle][NMeV])) | 0 | 6.52 | 5.8 | -8.91 | 5.33
COC1CC(=O)C23C(=O)NC(CC(C)C)C2C(C)=C(C)C(OO)C3/C=C(\C)CCC(O)C1O (stereo not drawn) | 2.36 | 8 | 7.69 | -4.66 | 7.55
COc1ccc2c3c([nH]c2c1)C(C=C(C)C)N1C(=O)C2CCCN2C(=O)C1C3 (stereo not drawn) | -1.24 | -0.354 | 8.03 | -13.9 | -9.45
Cc1cc(C)cc(NC(=O)N2Cc3ccccc3-n3cccc3C2C(C)C)c1 (stereo not drawn) | -0.524 | 0 | 6.91 | 7.08 | 6.34
COc1ccc(NC(=O)N2Cc3ccccc3-n3cccc3C2c2cccc(C)c2)c(OC)c1 (stereo not drawn) | 11.8 | 0 | 10.8 | 4.84 | 6.02
C[C@]12CC[C@H](O)C[C@H]1CC[C@@H]1[C@@H]2[C@H](O)C(=O)[C@]2(C)[C@@H](c3ccc(=O)oc3)CC[C@]12O | 1.84 | 5.2 | 6.26 | -7.56 | 2.65
CN1c2cccnc2CNCC[C@H]1CO | -3.37 | -8.1 | -10.5 | -9.25 | -4.75
COc1ccc(C(=O)NC[C@H]2C[C@@H]3CCN2C[C@@H]3c2cc(-c3cccs3)nn2C)cc1 | -0.543 | -1.75 | -9.91 | -6.83 | -20.4
CSc1ccc(C2c3cccn3-c3ccccc3CN2C(=O)Nc2ccccc2C(F)(F)F)cc1 (stereo not drawn) | -2.21 | 2.41 | 1.19 | -6.29 | 2.15
